Experimental data taken from PubChem BioAssay AID588855 (National Center for Advancing Translational Sciences (NCATS), 2011).
Values joined by “and” are separate entries in the source; they are usually repeats but may differ in a detail not shown here. Identical values can stand only once. Hit rate of the full screen: of about 410,000 compounds, about 5,000 (1.2%) were called active. Inconclusive results, whose numbers are uncertain, are shown with a selection of clear calls. Calls follow the shape of the dose curve; as a rule, active = well fitted inhibition curve with a large enough effect; inconclusive = small, poorly fitted or top-dose-only effect; inactive = no such curve, though single readings can be large or run the other way. A potency beside an inconclusive call is a rough fit, not a confirmed value.

experiment: qHTS for Inhibitors of TGF-b; settings: HepG2 CAGA-GFP TGF-b/SMAD3 reporter, GFP fluorescence, 18 h, TGF-beta stimulated, 500 pg/mL final; series mostly up to 46.1 µM; also: nearly all actives have a fitted effect of over 65% in size
Outline: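 Using HEPG2 CAGA-GFP reporter cells at 1000 cells/well, we pinned test compounds, stimulated with recombinant TGF-beta (500 pg/mL final) and measured total well GFP after 18 h.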
Potency is read from the fitted curve at half-maximal effect; tags tell the direction and shape of the fitted curve.

SMILES | Potency
Cn1c(=O)c2c(ncn2CCOc2cccc(Br)c2)n(C)c1=O | inconclusive: 17.8 µM [inhibitor, single point]
C(=N\c1nccs1)/c1c[nH]c2ccccc12 | inactive
COc1ccc2nc(NCCO)[nH]c2c1 | inactive
COc1cccc(C(O)c2ncc(-c3ccc4ccccc4c3)[nH]2)c1 (configuration not stated) | inconclusive: 35.5 µM [inhibitor, single point]
CCCc1c(C(=O)N/N=C/c2ccccc2C(F)(F)F)nnn1-c1nonc1N | inactive
CCCN1CCN(C(=O)C2CCN(c3nnc(C)c4c(C)n(-c5ccc(C)cc5)nc34)CC2)CC1 | inconclusive: 6.31 µM [inhibitor, partial curve]
CCc1ccc(Cn2c(CNS(=O)(=O)c3ccc(F)c(Cl)c3)nc3cccnc32)cc1 | inconclusive: 12.6 µM [inhibitor, partial curve, poor fit]
CCc1nc2c(OCc3ccc(F)c(F)c3)cccn2c1N(C)C(=O)c1ccc(C)cc1 | inconclusive: 17.8 µM [inhibitor, partial curve, poor fit]
COc1ccc(C(=O)c2ccccc2)c2c(O)ccc(C(=O)c3ccccc3)c12 | inconclusive: 7.94 µM [inhibitor, partial curve, poor fit]
Cc1cc2oc(C(=O)N(Cc3ccccc3F)C3CCS(=O)(=O)C3)c(C)c2cc1Cl (configuration not stated) | inconclusive: 35.5 µM [inhibitor, single point]
COc1ccccc1N1CCN(C(=O)c2ccc3[nH]c(C)c(C)c3c2)CC1 | inconclusive: 14.1 µM [inhibitor, single point]
O=[N+]([O-])c1ccc2c([N+](=O)[O-])ccc3c2c1CC3 | inactive
Cc1ccc(Oc2ccccc2/C=N/O)cc1 | inactive
CCCCNC(=O)C1(C)CCCCN1C(=O)c1cc2ccccc2s1 (configuration not stated) | inactive
COCc1ccc(CN2CCCC(CCC(=O)NCc3cccc(OC)c3)C2)o1 (configuration not stated) | inactive
CCOC(=O)N1CCN(C(=O)c2ccc(S(=O)(=O)Nc3ccccc3)cc2)CC1 | inconclusive: 15.8 µM [inhibitor, partial curve, poor fit]
Cn1c(NCC2CCCCC2)nc2cc(-c3ccsc3)sc2c1=O | inconclusive: 10 µM [inhibitor, partial curve]
CCc1cccc(NC(=O)c2cc3c(=O)n(Cc4ccc(OC)cc4)ccc3nc2C)c1 | inconclusive: 28.2 µM [inhibitor, single point]
Clc1nc(NC2CCCCC2)c2cn[nH]c2n1 | inactive
COc1ccccc1-c1nc2c(c(SCC(=O)Nc3c(C)cc(C)cc3C)n1)Cc1c(CO)cnc(C)c1O2 | inconclusive: 0.126 µM [inhibitor, full curve, poor fit]
COC(=O)[C@@]1(Cc2ccc(F)cc2)[C@H]2c3cc(C(=O)N(C)C)n(Cc4ccccc4)c3C[C@H]2CN1C(=O)c1ccccc1 | inconclusive: 35.5 µM [inhibitor, single point]

SMILES | Potency
COc1cccc(NC(=O)C(c2ccccc2)N2CCCC2)c1 (configuration not stated) | inactive
Cc1ccc(SCCN2CCN(CCc3ccccc3)CCC2=O)cc1 | inconclusive: 22.4 µM [inhibitor, single point] and inconclusive: 11.2 µM [inhibitor, single point]
O=C(/C=C/c1cccc(Br)c1)N1CCN(c2cccc(C(F)(F)F)c2)CC1 | inconclusive: 20 µM [inhibitor, single point]
CCCCOC(=O)c1ccc(NC(=O)Cn2nnc3sc4c(c3c2=O)CCCC4)cc1 | inactive
FC(F)(F)c1cccc(Cc2noc(CN3CCCC(OCc4ccccn4)C3)n2)c1 (configuration not stated) | inconclusive: 6.31 µM [inhibitor, single point]
CC[C@@H](C)[C@H](NC(=O)OC(C)(C)C)c1nnc(S(=O)(=O)Cc2cc(C)ccc2C)o1 | inconclusive: 3.55 µM [inhibitor, partial curve, poor fit]
O=C(NCc1cccs1)c1ccc(Cn2c(SCc3cccc(F)c3)nc3cccnc32)cc1 | inconclusive: 11.2 µM [inhibitor, partial curve, poor fit]
Cc1cc(C(C#N)c2ccccc2F)n2ncnc2n1 (configuration not stated) | inconclusive: 8.91 µM [inhibitor, partial curve]
CCn1c2ccccc2c2cc(/C=N/n3cnnc3)ccc21 | inconclusive: 35.5 µM [inhibitor, single point]
CCOc1ccccc1NC(=O)Cn1c(=O)n(-c2ccccc2)c(=O)c2oc3ccccc3c21 | inactive
CCOc1ccccc1N1CCN(C(=O)c2cccc(-c3ccc(O)cc3)c2)CC1 | inconclusive: 35.5 µM [inhibitor, single point]
Cc1cccc(Cn2c(=O)n(CC3CCC(C(=O)N4CCOCC4)CC3)c(=O)c3sccc32)c1 (configuration not stated) | inconclusive: 8.91 µM [inhibitor, partial curve]
Cc1ccc(Cn2c(N3CCN(CCO)CC3)nc3c2c(=O)n(C)c(=O)n3C)cc1 | inactive
COc1ccc(-n2c(N)c(-c3nc4ccccc4n3C)sc2=S)cc1 | inconclusive: 2.24 µM [inhibitor, full curve, poor fit]
Cc1ccc2nc(-c3ccccc3)cc(C(=O)Nc3cccnc3)c2c1 | inconclusive: 35.5 µM [inhibitor, single point]
O=C(/C=C/c1c(F)cccc1Cl)Nc1cccnc1 | inactive
COc1ccccc1N1CCN(C(CNC(=O)C(=O)NCc2ccc(C)cc2)c2cccnc2)CC1 (configuration not stated) | inconclusive: 11.2 µM [inhibitor, partial curve, poor fit]
CCc1cccc(NC(=O)C2CCCN(S(=O)(=O)c3cccs3)C2)c1 (configuration not stated) | inconclusive: 17.8 µM [inhibitor, single point]
CCOC(=O)c1nn(-c2ccc(C)cc2)c(=O)c2c(N)scc12 | inconclusive: 35.5 µM [inhibitor, single point]
COc1ccc(N(CC(=O)NN=C2CCN(C)CC2)S(=O)(=O)c2ccccc2)c(OC)c1 | inactive
CCOC(=O)C1=C(CN2CCCCC2)NC(=O)NC1c1cc(C)ccc1C (configuration not stated) | inactive
